Experimental data taken from PMC5573416, “Inhibiting mycobacterial tryptophan synthase by targeting the inter-subunit interface” (Scientific Reports, 2017).

Details: for Cli human: human microsomal fraction; for Cli mouse: mouse microsomal fraction
Experimental: Pooled mouse and human liver microsomes were purchased from Xenotech. Microsomes (final protein concentration 0.5 mg/mL, 5 mM MgCl2) and test compound (final substrate concentration 0.5 µM; final DMSO concentration 0.5%) in 0.1 M phosphate buffer pH 7.4 were pre-incubated at 37 °C prior to the addition of NADPH (final concentration 1 mM) to initiate the reaction. The final incubation volume was 600 µL. Control samples were included for each compound tested where 0.1 M phosphate buffer pH 7.4 was added instead of NADPH (minus NADPH). Midazolan was included as control in every experiment. Each compound was incubated for 30 min and samples (90 µL) were taken at 0, 5, 10, 20 and 30 min. The minus NADPH control was sampled at 0 and 30 min only. The reactions were stopped by the addition of 200 µL of acetonitrile:methanol (3:1) containing an internal standard, followed by centrifugation at 3700 rpm for 15 min at 4 °C to precipitate the protein. Quantitative analysis was performed using specific LC-MS/MS conditions. Data analysis: from a plot of ln peak area ratio (compound peak area/internal standard peak area) against time, the gradient of the line was determined. Subsequently, half-life and intrinsic clearance were calculated using the equations below:
Elimination rate constant(k)=(−gradient)
Intrinsic Clearance(CLint)(mL/min/g protein)=V×0.693/t1/2
where V = Incubation volume mL/g microsomal protein.

| Substance | Cli human [mL/min/g] | Cli mouse [mL/min/g] |
| --- | --- | --- |
| (3R,4R)-3-(4-(2-chlorophenyl)piperidin-1-yl)-4-hydroxytetrahydrothiophene 1,1-dioxide [Compound 4] | 1.1 | <0.5 |
| (3R,4R)-3-(4-(2-chloro-4-fluorophenyl)piperidin-1-yl)-4-hydroxytetrahydrothiophene 1,1-dioxide [Compound 5] | 1.7 | 73.7 |
